Measured values: PubChem BioAssay AID686978 (National Center for Advancing Translational Sciences (NCATS), 2013)
The whole screen tested about 420,000 compounds, of which about 64,000 (15%) were called active. The shares of active, inactive and inconclusive entries below differ from those in the screen. The call rests on the fitted dose curve; in most records, active means well fitted inhibition curve with a large enough effect; inconclusive means small, poorly fitted or top-dose-only effect; inactive means flat fitted curve, though single readings scatter. Potencies of inconclusive entries are left out as doubtful fits.

assay: qHTS for Inhibitors of human tyrosyl-DNA phosphodiesterase 1 (TDP1): qHTS in cells in absence of CPT; conditions: DT40 Tdp1-/- hTDP1 cells, no CPT, ATP luminescence, 48 h; series mostly up to 46.2 µM; further: nearly all actives have a fitted effect of over 55% in size
Summary of the method: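 Compound effects on proliferation are scored in DT40 Tdp1-/-;hTDP1 cells in the absence of CPT. ATP levels (CellTiter-Glo luminescence) are recorded after a ≥48 hr, 37 °C incubation.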
Potency means the concentration at half of the fitted maximal effect; tags describe the fitted curve by direction and shape.

SMILES | Potency
O=C(Nc1ccc(-c2csc(Nc3ccc(Cl)cc3)n2)cc1)c1cc([N+](=O)[O-])cc(C(F)(F)F)c1 | inconclusive [inhibitor, single point]
CCOC(=O)C(=O)N(C)c1c(CC)nc2c(OCc3ccccc3C)cccn12 | inactive
Cc1nn(Cc2ccc(Cl)c(Cl)c2)c(C)c1NC(=O)c1sc2ccccc2c1Cl | active: 14.6 µM
Cc1cccc(C)c1NC(=O)/C(C#N)=C/c1cccs1 | inconclusive [inhibitor, single point]
CCCCOc1ccc(Cn2c(=O)oc3ccc(C)cc32)cc1OC | active: 14.6 µM
Cn1c(=O)[nH]c2c(cnn2C)c1=O | inactive
CC1(c2ccccc2)NC(=O)N(CC(=O)Nc2ccc3c(c2)CCC3)C1=O (stereo not given) | inconclusive [inhibitor, single point]
Cc1ccccc1NC(=O)Cn1cc(C(=O)C2CC2)c2ccccc21 | inconclusive [inhibitor, single point]
CC(=O)c1cn(Cc2ccccc2)c(=O)n(Cc2ccc(F)cc2)c1=O | inactive
COc1ccc2c(c1)c(=O)c(C(=O)c1ccc(F)cc1)cn2CC(=O)Nc1ccc2c(c1)OCO2 | inconclusive [inhibitor, single point]
COC(=O)c1sccc1NC(=O)c1cc(-c2cccc(C)c2)nc2ccccc12 | inconclusive [inhibitor, single point]
COc1cccc(NC(=O)c2ccnc(N3CCC(C(=O)NCc4ccccc4OC)CC3)c2)c1 | inactive
CCn1nc(C(=O)NNC(=O)CCOc2cc(C)ccc2C)c2ccccc2c1=O | inconclusive [inhibitor, single point]
CCc1noc(C)c1C(=O)N(Cc1ccccc1)c1c(N)n(CCOC)c(=O)[nH]c1=O | inconclusive [inhibitor, partial curve]
CCc1ccc(NC(=O)CCNC(=O)Cn2ccc3ccccc3c2=O)cc1 | inactive
CCCC[C@@H]1CN=C(N)N1CC(C)(C)C | active: 23.1 µM
CCc1c(C)nc2nncn2c1NCc1ccccc1 | active: 16.4 µM
C/C(=N\NC(=O)c1ccccc1[N+](=O)[O-])c1c(O)cc(C)oc1=O | inconclusive [inhibitor, single point]
O=S1(=O)c2ccccc2N(Cc2ccc(Cl)cc2)c2ccccc21 | inconclusive [inhibitor, single point]
Cc1cccc(C)c1N1CCN(S(=O)(=O)N(C)C)CC1 | inconclusive [inhibitor, single point]
Cc1ccc(S(=O)(=O)NN=Cc2c(O)ccc3ccccc23)cc1 | inconclusive [inhibitor, partial curve]
CC(C)(C)c1ccc(C(O)c2ncc(-c3ccc4ccccc4c3)[nH]2)cc1 (stereo not given) | active: 18.4 µM
CCOC(=O)N=S(N)(=O)c1ccccc1 (stereo not given) | inactive

SMILES | Potency
CCOc1ccc(-n2c(=O)c3ccccc3c3ccccc3c2=O)cc1 | inactive
O=C(CCCCCn1c(=O)c2sccc2n(Cc2ccc(Cl)cc2)c1=O)NCc1ccc2c(c1)OCO2 | inconclusive [inhibitor, partial curve]
O=C(CC(c1ccccc1)c1cc(Cl)ccc1O)N1CCCC1 (stereo not given) | inconclusive [inhibitor, single point]
Cc1ccnc(NC(=O)Cc2ccc(-c3ccccc3)cc2)c1 | inconclusive [inhibitor, single point]
CC(C)Cc1nc2oc3c(N4CCN(CCO)CC4)ncnc3c2c2c1CCCC2 | active: 13 µM
CCOC(=O)COc1ccc2ccccc2c1/C=C/[N+](=O)[O-] | active: 3.66 µM
C#CCN(C[C@@H]1[C@@H](OC(=O)NCc2ccccc2)[C@@H](OC(=O)NCc2ccccc2)Cn2c(=O)n(CCCCCC)c(=O)n21)S(=O)(=O)c1ccc(C)cc1 | inconclusive [inhibitor, partial curve]
O=C(CSc1ccc2nnc(-c3ccccn3)n2n1)Nc1ccccc1F | inconclusive [inhibitor, single point]
CN(C)CCCNc1nc(-c2ccccc2)c2c(c1C#N)CC(C)(C)OC2 | inconclusive [inhibitor, single point]
Cc1ccc(S(=O)(=O)c2ccc(Cl)cc2)cc1S(=O)(=O)N1CCN(C)CC1 | inconclusive [inhibitor, single point]
CCOC(=O)N1N=C(c2ccc(OC)cc2)CC1(O)C(F)(F)F (stereo not given) | inactive
O=C(Cc1ccccc1[N+](=O)[O-])Nc1ccc2c(c1)OCCO2 | inconclusive [inhibitor, single point]
C=CCOc1ccc(Cl)cc1-c1noc(-c2csc([C@H]3C[C@H](O)[C@@H](CO)O3)n2)n1 | inconclusive [inhibitor, single point]
COc1cc(C(=S)N2CCOCC2)cc(OC)c1OS(=O)(=O)c1ccc(NC(C)=O)cc1 | inactive
COc1c2c(cc3oc(CO[C@@H]4O[C@H](CO)[C@@H](O)[C@H](O)[C@H]4O)cc(=O)c13)O[C@H](C(C)(C)O)C2 | inactive
Cc1ccc(NC(=O)C2CCN(c3nnc(C)c4c(C)n(-c5ccccc5)nc34)CC2)c(Cl)c1 | inconclusive [inhibitor, single point]
COc1ccc(NC(=O)COC(=O)c2cc(OC)c(OC)cc2NC(=O)c2ccco2)cc1OC | active: 20.6 µM
O=C(NN1CCOCC1)c1ccc(S(=O)(=O)N2CCCCC2)cc1 | inactive
O=C(O)c1c(Br)c(Br)c(Br)c(Br)c1C1c2ccc(O)cc2Oc2cc(O)ccc21 | inactive
CC(=O)Nc1ccccc1-c1nc(CNC(=O)c2cccc(-n3cccn3)c2)c(C)o1 | inactive
O=C(NCCc1ccc(Cl)cc1)c1ccc2c(c1)N(Cc1ccc(Cl)cc1)C(=O)CS2 | inconclusive [inhibitor, single point]
COc1ccc(CN2C(=O)c3ccccc3C2c2nnnn2Cc2ccccc2)cc1OC (stereo not given) | inconclusive [inhibitor, single point]
